Measurements as given in the supplement of paper PMC7125110.
± gives the standard error. Variants at the floor of the assay are shown more often than the library holds them.

B1: glmS ribozyme (parent)
chain: AUAAAAGCGCCAGAACUACAGAAAUGUAGUUGACGAGGAGGAGGUUUAUCGAAUUUUCGGCGGAUGCCUCCAAA

Columns and labels:
Conditions in all cases: with glucosamine-6-phosphate
glucosamine-6-phosphate [1] = variants of: B1; test: self-cleavage kobs at 640 uM GlcN6P; higher = faster cleavage; RNA array
Outline: (§1)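 Glucosamine-6-phosphate (40 μM to 10 mM) in HEPES/KCl/Mg(OAc)2 buffer was flowed over sequenced MiSeq chips, and tiles were imaged over ~14 h. Barcoded ribozyme variants there had been transcribed in situ by E. coli RNA polymerase and were tracked through a hybridised Cy3 probe at 37 °C. One- or two-exponential decay fits to per-tile medians, normalised to baseline and to non-cleaving reference variants, gave kobs. kcat and KM came from weighted Michaelis–Menten fits across concentrations.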

glucosamine-6-phosphate [2] = variants of: B1; test: self-cleavage kobs at 10000 uM GlcN6P; higher = faster cleavage; RNA array
Outline: as §1

glucosamine-6-phosphate [3] = variants of: B1; test: self-cleavage kobs at 160 uM GlcN6P; higher = faster cleavage; RNA array
Outline: as §1

glucosamine-6-phosphate [4] = variants of: B1; test: self-cleavage kobs at 2500 uM GlcN6P; higher = faster cleavage; RNA array
Outline: as §1

| Variant | self-cleavage kobs at 640 uM GlcN6P (glucosamine-6-phosphate [1]) [s⁻¹] | self-cleavage kobs at 10000 uM GlcN6P (glucosamine-6-phosphate [2]) [s⁻¹] | self-cleavage kobs at 160 uM GlcN6P (glucosamine-6-phosphate [3]) [s⁻¹] | self-cleavage kobs at 2500 uM GlcN6P (glucosamine-6-phosphate [4]) [s⁻¹] |
| --- | --- | --- | --- | --- |
| G40C C50A | < 1e-05 | < 1e-05 | – | – |
| G40C G60A C70A | < 1e-05 | – | – | – |
| G40C G60U A64U | < 1e-05 | < 1e-05 | – | – |
| G40C G60U C67G | < 1e-05 | – | < 1e-05 | < 1e-05 |
| G40U A64C | < 1e-05 | – | < 1e-05 | – |
| G40U C50A A64G | < 1e-05 | – | – | – |
| G40U C61G U65G | < 1e-05 | – | – | < 1e-05 |
| G40U C68G | < 1e-05 | < 1e-05 | < 1e-05 | < 1e-05 |
| G40U G41C C61U | < 1e-05 | – | < 1e-05 | – |
| G40U G44U C68U | < 1e-05 | – | – | – |
| G40U G63A C71A | < 1e-05 | < 1e-05 | < 1e-05 | – |
| G40U U45C G59A G63A | < 1e-05 | – | – | < 1e-05 |
| G40U U45G C58U | < 1e-05 | < 1e-05 | < 1e-05 | – |
| G40U U55A C71A | 0.00279 ± 0.00086 | 0.0227 ± 0.0049 | – | – |
| G40U U56C U57A | < 1e-05 | – | < 1e-05 | – |
| G41A A42G U45G | 0.0066 ± 0.002 | – | – | – |
| G41A A53U C61A G63C | < 1e-05 | – | < 1e-05 | < 1e-05 |
| G41A C50A G51C A53U | < 1e-05 | – | < 1e-05 | < 1e-05 |
| G41A C67A C68A | < 1e-05 | – | < 1e-05 | – |
| G41A G66U C70A | 9.26e-05 ± 3.3e-05 | 0.000131 ± 2e-05 | – | 6.32e-05 ± 2.8e-05 |

| Variant | self-cleavage kobs at 640 uM GlcN6P (glucosamine-6-phosphate [1]) [s⁻¹] | self-cleavage kobs at 10000 uM GlcN6P (glucosamine-6-phosphate [2]) [s⁻¹] | self-cleavage kobs at 160 uM GlcN6P (glucosamine-6-phosphate [3]) [s⁻¹] | self-cleavage kobs at 2500 uM GlcN6P (glucosamine-6-phosphate [4]) [s⁻¹] |
| --- | --- | --- | --- | --- |
| G41A U45C G59U G60U | < 1e-05 | – | – | – |
| G41A U46A C50U | < 1e-05 | – | < 1e-05 | < 1e-05 |
| G41A U46G C68U | < 1e-05 | – | < 1e-05 | – |
| G41C A42U U54A | < 1e-05 | – | – | – |
| G41C A42U U55C C61U G66C | < 1e-05 | – | – | – |
| G41C A48C C61U | < 1e-05 | – | – | < 1e-05 |
| G41C A48U G51U U65C | < 1e-05 | – | – | < 1e-05 |
| G41C A53U | 7.44e-05 ± 1.2e-05 | – | – | – |
| G41C C50G G51C | < 1e-05 | – | – | – |
| G41C C50U G59U | < 1e-05 | – | – | – |
| G41C G51U A64C | < 1e-05 | – | – | < 1e-05 |
| G41C G51U U55G | < 1e-05 | – | – | < 1e-05 |
| G41C G59C | < 1e-05 | – | < 1e-05 | < 1e-05 |
| G41C G63C A64U | < 1e-05 | – | – | < 1e-05 |
| G41C G66U | < 1e-05 | – | < 1e-05 | – |
| G41C U46A G60C | < 1e-05 | – | – | – |
| G41C U46G G63A G66A | < 1e-05 | – | – | < 1e-05 |
| G41C U49C U54G G66C | < 1e-05 | – | – | – |
| G41C U65C C67G | < 1e-05 | – | < 1e-05 | < 1e-05 |
| G41U A52C C71A | < 1e-05 | – | – | < 1e-05 |

| Variant | self-cleavage kobs at 640 uM GlcN6P (glucosamine-6-phosphate [1]) [s⁻¹] | self-cleavage kobs at 10000 uM GlcN6P (glucosamine-6-phosphate [2]) [s⁻¹] | self-cleavage kobs at 160 uM GlcN6P (glucosamine-6-phosphate [3]) [s⁻¹] | self-cleavage kobs at 2500 uM GlcN6P (glucosamine-6-phosphate [4]) [s⁻¹] |
| --- | --- | --- | --- | --- |
| G41U C58A | < 1e-05 | – | < 1e-05 | – |
| G41U C67A | < 1e-05 | – | < 1e-05 | – |
| G41U C67G | < 1e-05 | < 1e-05 | < 1e-05 | < 1e-05 |
| G41U C68G | < 1e-05 | < 1e-05 | – | – |
| G41U C68U U69C | < 1e-05 | – | < 1e-05 | < 1e-05 |
| G41U G43C G62C | < 1e-05 | – | – | < 1e-05 |
| G41U G43U G59C | < 1e-05 | < 1e-05 | – | – |
| G41U G44A C50U | < 1e-05 | – | – | < 1e-05 |
| G41U G51U G62U | < 1e-05 | – | – | – |
| G41U U45C | 0.000157 ± 4e-05 | 0.000331 ± 4.7e-05 | 4.06e-05 ± 1.5e-05 | 0.000273 ± 5.6e-05 |
| G41U U46G A48C U49C | < 1e-05 | – | – | – |
| G41U U47C U57G U69G | < 1e-05 | – | – | – |
| G41U U47G C50G | < 1e-05 | – | – | – |
| G41U U47G G59U U65C | < 1e-05 | – | < 1e-05 | < 1e-05 |
| G41U U49G A64U | < 1e-05 | – | – | < 1e-05 |
| G41U U56A C70A | 0.0096 ± 0.0018 | 0.0192 ± 0.0059 | 0.00226 ± 0.00043 | 0.033 ± 0.0088 |
| G41U U56A G60A | < 1e-05 | – | < 1e-05 | – |
| A42C A48G U54G | < 1e-05 | – | – | – |
| A42C A48G U55A | < 1e-05 | – | < 1e-05 | – |
